The supplement of paper PMC3334620
In all, about 33,000 sequences were measured (“E-score (-0.5 to 0.5)”: median about -0.016, highest 2% from about 0.31 on). This is one part of the list.

The sequences below were run against Cst6 (UniProt P40535) (assay: PBM E-score (8-mer binding enrichment) (E-score (-0.5 to 0.5)); higher = stronger / more preferred TF binding; most listed sequences are background and not binding sites). Conditions: protein concentration: 200 nM; construct: GST-DNA-binding domain.
How it was run: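 Full-length yeast transcription factors or their DNA-binding domains, GST-tagged and expressed with PURExpress, were applied at about 100-200 nM to universal all-10-mer Agilent arrays. These arrays had been made double-stranded by primer extension on fresh or once-stripped slides. Detection used fluorescent anti-GST, normalisation used masliner, and E-scores for ungapped eight-base words pooled with reverse complements came from the Universal PBM Analysis Suite.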

| Sequence | PBM E-score |
| --- | --- |
| GAGGGTAC | -0.281 |
| AGGTGATC | 0.167 |
| ACGTCCAT | 0.169 |
| ACTTCCGG | -0.117 |
| CAGCGGTC | -0.259 |
| AAGGGAGC | -0.353 |
| ACCTGAAA | 0.12 |
| AAGCATGT | -0.00536 |
| GATAAAGC | 0.0878 |
| CCCAGTCA | -0.272 |
| CCGGATCC | -0.199 |
| ACCTGACA | 0.0839 |
| GGGTGTAC | -0.185 |
| ATTACTGG | -0.0944 |
| ACTATGTG | -0.00983 |
| GTAGTCGA | 0.002 |
| AGTACATG | 0.0645 |
| CCGGATGA | -0.0384 |
| AAGCGTGA | 0.141 |
| AGCAAGCC | -0.257 |
| CCTCGACC | -0.19 |
| CTCAGCGA | -0.0409 |

| Sequence | PBM E-score |
| --- | --- |
| CCACCCGG | -0.285 |
| AACAAACT | 0.187 |
| ACTCAAAG | -0.0697 |
| CAAACGAA | 0.137 |
| AGTGGTCA | -0.0545 |
| ATGAGGTC | 0.256 |
| CTAGTGGC | -0.0665 |
| AACAGGTA | 0.0818 |
| AATAGGCC | -0.161 |
| AGACAAAC | 0.0468 |
| CGTCGAAC | -0.0518 |
| CTTTAATA | 0.201 |
| ACATGCAG | -0.0347 |
| CTACCGAG | -0.164 |
| ACTGTTTC | -0.021 |
| AGCCCGAC | -0.167 |
| ACCTATCT | -0.113 |
| GACCCCTA | -0.235 |
| GATCGAGC | -0.0261 |
| CCCACGTC | 0.141 |
| GACAAAGC | 0.0196 |
| AATGAGGG | -0.17 |

| Sequence | PBM E-score |
| --- | --- |
| CTTGCACA | -0.0381 |
| CGCGGCAG | 0.123 |
| AGAGCCAT | -0.0246 |
| GCCAGTCC | -0.307 |
| AGACCCCG | -0.234 |
| CTGCACTC | -0.132 |
| CAGTTCCG | -0.259 |
| AAATTTGG | 0.0727 |
| ATAAGCGC | 0.0378 |
| ATGAGTCC | -0.159 |
| ACTGTCCA | -0.172 |
| CCAAGACG | -0.0335 |
| CTTGTCGA | -0.117 |
| AGCTGGTC | -0.206 |
| AACCTATA | 0.152 |
| CGTCTAAG | 0.0362 |
| GTTGTCTA | -0.0559 |
| ATCGACAG | 0.117 |
| CACACAGA | 0.0233 |
| AGCCTAAG | -0.146 |
| TATCGATA | -0.0701 |
| ACCTGGAT | -0.315 |

| Sequence | PBM E-score |
| --- | --- |
| GGAGTAGA | -0.0383 |
| ACGCGTAT | 0.175 |
| CGATGCGC | 0.00895 |
| CGTAAAAG | 0.196 |
| AACGATAT | 0.266 |
| CAACTCAA | 0.0831 |
| CTGAGGCA | 0.0318 |
| AAAATCGA | 0.106 |
| GCGTCTGA | -0.0724 |
| AAAATCCG | 0.0885 |
| ATACTATA | 0.0901 |
| GTTAGTCA | 0.0776 |
| CACGCAAG | 0.092 |
| ACTGCACC | -0.125 |
| CGGGGACA | -0.237 |
| ATGATGGG | -0.078 |
| AGTGCCGG | -0.116 |
| AACCGTGT | -0.0417 |
| ACGAGACG | -0.087 |
| GTTTGCCA | 0.057 |
